Results: the supplement of paper PMC4967469
The IC50 comes from the fitted curve, where viability falls to half of the control; where the fit passes the top or lowest dose, that dose stands as a limit. AUC is the area under the same curve over the 256-fold range up to the top dose, as a fraction; the more sensitive the line, the further below 1. For some of these results: An inferred top dose was derived from the fitted curves, not read from the paper. For some of these results: Drugs with an entry number were screened twice under separate entries, and the two screens often disagree.

Legend:
Assay in all cases: Viability of human cancer cell lines after 72 h of drug (GDSC screen)
Y-39983 = compound: C[C@@H](N)c1ccc(C(=O)Nc2ccnc3[nH]ccc23)cc1 [Y-39983]; conditions: top dose 20 µM; top dose inferred
Description: (§1)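 Human cancer cell lines in 384-well plates, medium with 10% serum, drug for 72 h over a 256-fold dose range (nine 2-fold or five 4-fold steps up to the top dose). Adherent lines were fixed and stained with the nucleic acid dye Syto60, suspension lines read with resazurin; signal relative to control wells, capped at 0 and 100%. One two-parameter sigmoid per drug and line, fitted in a mixed model over all curves with the slope shared within a line.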

Epothilone B = compound: C/C(=C\c1csc(C)n1)[C@@H]1C[C@@H]2O[C@]2(C)CCC[C@H](C)[C@H](O)[C@@H](C)C(=O)C(C)(C)[C@@H](O)CC(=O)O1 [Epothilone B]; conditions: top dose 0.032 µM; top dose inferred
Description: as §1

AZD-0530 = compound: CN1CCN(CCOc2cc(OC3CCOCC3)c3c(Nc4c(Cl)ccc5c4OCO5)ncnc3c2)CC1 [AZD-0530]; conditions: top dose 2 µM
Description: as §1

Pyrimethamine = compound: CCc1nc(N)nc(N)c1-c1ccc(Cl)cc1 [Pyrimethamine]; conditions: top dose 20 µM; top dose inferred
Description: as §1

PHA-793887 = compound: CC(C)CC(=O)Nc1n[nH]c2c1CN(C(=O)C1CCN(C)CC1)C2(C)C [PHA-793887]; conditions: top dose 10.24 µM
Description: as §1

PLX4720 = compound: CCCS(=O)(=O)Nc1ccc(F)c(C(=O)c2c[nH]c3ncc(Cl)cc23)c1F [PLX4720]; conditions: top dose 10 µM
Description: as §1

TPCA-1 = compound: NC(=O)Nc1sc(-c2ccc(F)cc2)cc1C(N)=O [TPCA-1]; conditions: top dose 20 µM
Description: as §1

[1] = screen: GDSC drug entry 1371, top dose inferred

Cell Line | AUC (Y-39983) | IC50 (Y-39983) [µM] | AUC (Epothilone B) | IC50 (Epothilone B) [µM] | AUC (AZD-0530) | IC50 (AZD-0530) [µM] | AUC (Pyrimethamine) | IC50 (Pyrimethamine) [µM] | AUC (PHA-793887) | IC50 (PHA-793887) [µM] | AUC (PLX4720; screen: GDSC drug entry 1036) | IC50 (PLX4720; screen: GDSC drug entry 1036) [µM] | AUC (PLX4720; [1]) | IC50 (PLX4720; [1]) [µM] | AUC (TPCA-1) | IC50 (TPCA-1) [µM]
HSC-39 (stomach, suspension) | 0.985 | > 20 | 0.935 | > 0.032 | 0.991 | > 2 | 0.926 | > 20 | 0.862 | 6.87 | 0.776 | 3.44 | 0.939 | > 10 | 0.986 | > 20
HT (B-cell lymphoma, suspension) | 0.827 | 10.9 | 0.814 | 0.0156 | 0.99 | > 2 | 0.926 | > 20 | 0.847 | 6.64 | 0.956 | > 10 | 0.883 | 9.16 | 0.912 | > 20
HUTU-80 (digestive system, adherent) | 0.928 | > 20 | 0.231 | 0.000397 | 0.936 | > 2 | 0.845 | 10.9 | 0.605 | 1.18 | 0.991 | > 10 | 0.986 | > 10 | 0.812 | 8.5
Hs-445 (Hodgkin lymphoma, suspension) | 0.912 | > 20 | 0.614 | 0.00401 | 0.984 | > 2 | 0.72 | 4.96 | 0.649 | 1.6 | – | – | 0.975 | > 10 | 0.594 | 2.22
IMR-5 (neuroblastoma, adherent) | 0.751 | 5.69 | 0.536 | 0.00247 | 0.992 | > 2 | 0.975 | > 20 | 0.618 | 1.28 | 0.989 | > 10 | 0.942 | > 10 | 0.529 | 1.48
IST-MEL1 (melanoma, adherent) | 0.89 | > 20 | 0.576 | 0.00337 | 0.951 | > 2 | 0.653 | 3.61 | 0.897 | > 10.2 | 0.863 | > 10 | 0.859 | > 10 | 0.87 | > 20
IST-MES1 (mesothelioma, adherent) | 0.984 | > 20 | 0.852 | 0.0251 | 0.919 | > 2 | 0.978 | > 20 | 0.97 | > 10.2 | – | – | 0.986 | > 10 | 0.764 | 7.32
IST-SL1 (small cell lung carcinoma, semi-adherent) | 0.837 | 13.9 | 0.7 | 0.00745 | 0.976 | > 2 | 0.824 | 12.3 | 0.608 | 1.28 | 0.929 | > 10 | 0.983 | > 10 | 0.709 | 4.95
JAR (urogenital system, adherent) | 0.978 | > 20 | 0.925 | > 0.032 | 0.968 | > 2 | 0.881 | > 20 | 0.559 | 0.926 | 0.985 | > 10 | 0.98 | > 10 | 0.902 | > 20
JJN-3 (haematopoietic neoplasm, suspension) | 0.965 | > 20 | 0.64 | 0.0045 | 0.993 | > 2 | 0.985 | > 20 | 0.513 | 0.688 | 0.993 | > 10 | 0.986 | > 10 | 0.76 | 5.9
JURL-MK1 (chronic myeloid leukaemia, suspension) | 0.928 | > 20 | 0.728 | 0.00889 | 0.916 | > 2 | 0.739 | 5.99 | 0.793 | 4.66 | 0.964 | > 10 | 0.945 | > 10 | 0.514 | 1.36
JVM-3 (lymphoid neoplasm, suspension) | 0.929 | > 20 | 0.987 | > 0.032 | 0.987 | > 2 | 0.979 | > 20 | 0.819 | 5.96 | 0.821 | 5.91 | 0.87 | – | 0.783 | 8.59
JiyoyeP-2003 (Burkitt lymphoma, suspension) | 0.886 | 17.5 | 0.741 | 0.00879 | 0.983 | > 2 | 0.836 | 11.1 | 0.754 | 3.08 | 0.958 | > 10 | 0.982 | > 10 | 0.691 | 3.97
K5 (thyroid, adherent) | 0.957 | > 20 | 0.637 | 0.00469 | 0.967 | > 2 | 0.962 | > 20 | 0.985 | > 10.2 | 0.57 | 0.963 | 0.675 | 1.88 | 0.938 | > 20
KALS-1 (glioma, adherent) | 0.905 | > 20 | 0.571 | 0.00336 | 0.797 | 1.37 | 0.743 | 8.2 | 0.817 | 8.7 | – | – | 0.973 | > 10 | 0.908 | > 20
KARPAS-299 (anaplastic large cell lymphoma, suspension) | 0.89 | 16.3 | 0.943 | > 0.032 | 0.992 | > 2 | 0.949 | > 20 | 0.376 | 0.31 | 0.931 | > 10 | 0.969 | > 10 | 0.762 | 6.04
KARPAS-422 (B-cell lymphoma, suspension) | 0.938 | > 20 | 0.772 | 0.0122 | 0.983 | > 2 | 0.879 | > 20 | 0.499 | 0.635 | 0.966 | > 10 | 0.983 | > 10 | 0.86 | 16.3
